Measured values as given in the supplement of paper PMC9135407.
Values joined by “and” are separate entries in the source; they are usually repeats but may differ in a detail not shown here. Equal values may be shown once. Where a name gives a salt, the structure may show the parent alone. Out of some 5,800 compounds screened, about 620 (11%) showed activity.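 The calls were made as follows: active = score above a cut-off or among the top three wells of a plate; in these data no inactive exceeds 0.85.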 The entries are a selection whose mix differs from that of the whole data set.

Test system: primary human hepatic stellate cells (donor 1)
Test: scaled lipid accumulation score (0 = DMSO-like, 1 = nortriptyline-like); higher = stronger HSC inactivation (lipid re-accumulation), active = hit call of the paper
Conditions: 48 h
[1] = library stock concentration: 3.33 mM
[2] = library stock concentration: 10 mM
[3] = library stock concentration: 1 mM
[4] = library stock concentration: 80 uM
[5] = library stock concentration: 400 uM
[6] = library stock concentration: 2 mM

## Cc1c(NC(=O)c2ccc(C(C)(C)C)cc2)cccc1-c1cn(C)c(=O)c(Nc2ccc(C(=O)N3CCOCC3)cc2)n1
[1]
  scaled lipid accumulation score: inactive: ≤ 0
[2]
  scaled lipid accumulation score: inactive: ≤ -0.001

## CN1CCN(CCCN2c3ccccc3Sc3ccc(S(=O)(=O)N(C)C)cc32)CC1 [Thioproperazine dimesylate]
  scaled lipid accumulation score: inactive: 0.733

## CCCCC/C=C\C/C=C\C/C=C\CCCCCCC(=O)OCC [Dihomo-.gamma.-Linolenic Acid ethyl ester]
[3]
  scaled lipid accumulation score: inactive: 0.019

## COc1ccc(-c2nc(C(=O)N3CCN(C)CC3)sc2-c2ccc(OC)cc2)cc1
[3]
  scaled lipid accumulation score: inactive: ≤ 0
[2]
  scaled lipid accumulation score: inactive: 0.693

## COc1ccc(CNC(=O)Nc2ncc([N+](=O)[O-])s2)cc1
[2]
  scaled lipid accumulation score: active: 0.864

## C[C@@H]1CC(=O)NN=C1c1ccc(NN=C(C#N)C#N)cc1
[2]
  scaled lipid accumulation score: inactive: 0.073

## C[C@@H]1CC(=O)NN=C1c1ccc(NN=C(C#N)C#N)cc1 [Levosimendan]
[1]
  scaled lipid accumulation score: inactive: ≤ 0
[2]
  scaled lipid accumulation score: inactive: ≤ 0

## Cc1ccccc1/C=C/C1=NCCN1 [Metrazoline oxalate]
[2]
  scaled lipid accumulation score: inactive: 0.381

## O=C(Nc1ccc(-c2cn[nH]c2)cc1)C1COc2ccccc2O1 (configuration not stated) [Rho Kinase Inhibitor V]
[1]
  scaled lipid accumulation score: inactive: ≤ 0

## COc1ccc2c(c1)c(CC(=O)Oc1ccc(-c3cc(=S)ss3)cc1)c(C)n2C(=O)c1ccc(Cl)cc1
[3]
  scaled lipid accumulation score: inactive: ≤ 0

## CC(=O)O[C@]1(C(C)=O)CC[C@H]2[C@@H]3C=C(C)C4=CC(=O)CC[C@@H]4[C@H]3CC[C@@]21C [Nomegestrol acetate]
  scaled lipid accumulation score: inactive: ≤ 0

## COc1ccc(CCN(C)CCc2ccc(OC)c(OC)c2)cc1OC [YS-035 hydrochloride]
[2]
  scaled lipid accumulation score: inactive: 0.011 and inactive: 0.112

## NC(=O)c1noc([C@H](CCCC2CCCCC2)CC(=O)NO)n1
[1]
  scaled lipid accumulation score: inactive: ≤ 0
[2]
  scaled lipid accumulation score: inactive: ≤ 0

## CC[N+](CC)(CC)CC [Tetraethylammonium chloride]
[2]
  scaled lipid accumulation score: inactive: ≤ 0

## Cc1cccc(-c2[nH]c(C(C)(C)C)nc2-c2ccc3nccnc3c2)n1
[4]
  scaled lipid accumulation score: inactive: 0.053
[5]
  scaled lipid accumulation score: inactive: ≤ -0.009
[6]
  scaled lipid accumulation score: inactive: ≤ -0.009
[1]
  scaled lipid accumulation score: inactive: ≤ 0
[2]
  scaled lipid accumulation score: inactive: ≤ 0 and inactive: 0.077 and inactive: 0.047

## CC(C)Oc1cccc(-n2c(CCc3c[nH]c4ccc(Br)cc34)nc3ccccc3c2=O)c1
[2]
  scaled lipid accumulation score: inactive: ≤ 0

## Cc1ccc(C(=O)Nc2ccc(CN3CCN(C)CC3)c(C(F)(F)F)c2)cc1C#Cc1cnc2cccnn12
[5]
  scaled lipid accumulation score: active: 0.949
[6]
  scaled lipid accumulation score: active: 1.1
[2]
  scaled lipid accumulation score: active: 1.14

## CC(=O)OC/C=C(C)/C=C/C=C(C)/C=C/C1=C(C)CCCC1(C)C [Retinyl acetate]
[2]
  scaled lipid accumulation score: inactive: 0.223

## CC(=O)OC/C=C(C)/C=C/C=C(C)/C=C/C1=C(C)CCCC1(C)C [Vitamin a (acetate)]
Library stock concentration: 6.1 mM
  scaled lipid accumulation score: inactive: ≤ -0.006

## NS(=O)(=O)c1cc2c(cc1Cl)N=C(CSCc1ccccc1)NS2(=O)=O [Benzthiazide]
  scaled lipid accumulation score: inactive: ≤ 0
[2]
  scaled lipid accumulation score: inactive: ≤ 0

## O=C1C(CC[S+]([O-])c2ccccc2)C(=O)N(c2ccccc2)N1c1ccccc1 (configuration not stated) [Sulfinpyrazone]
  scaled lipid accumulation score: inactive: ≤ 0
Library stock concentration: 4.9 mM
  scaled lipid accumulation score: inactive: ≤ 0
[2]
  scaled lipid accumulation score: inactive: 0.024 and inactive: ≤ 0

## CCn1c(=O)c(-c2ccc(-c3cncs3)cc2Cl)cc2cnc(Nc3ccc(N4CCN(C)CC4)cc3)nc21
[4]
  scaled lipid accumulation score: inactive: 0.014
[5]
  scaled lipid accumulation score: inactive: ≤ 0
[6]
  scaled lipid accumulation score: inactive: ≤ 0
[2]
  scaled lipid accumulation score: inactive: ≤ 0

## OC[C@@H](O)[C@@H](O)CO
[2]
  scaled lipid accumulation score: inactive: ≤ 0

## Cc1cnc(Nc2ccc(N3CCN(C)CC3)cc2)nc1Nc1cccc(S(=O)(=O)NC(C)(C)C)c1
[1]
  scaled lipid accumulation score: inactive: 0.318
[2]
  scaled lipid accumulation score: inactive: 0.463

## CCCn1c(=O)c2[nH]c(-c3ccccc3)nc2n(CCC)c1=O [1,3-Dipropyl-8-phenylxanthine]
[2]
  scaled lipid accumulation score: inactive: ≤ 0

## CC(C)CCN1c2nc(Nc3cc(F)c(O)c(F)c3)ncc2N(C)C(=O)C1C (configuration not stated)
[4]
  scaled lipid accumulation score: inactive: ≤ -0.001
[5]
  scaled lipid accumulation score: inactive: ≤ -0.001 and inactive: ≤ -0.005
[6]
  scaled lipid accumulation score: inactive: ≤ -0.001 and inactive: 0.123
[1]
  scaled lipid accumulation score: inactive: ≤ 0
[2]
  scaled lipid accumulation score: inactive: ≤ 0 and inactive: ≤ -0.001 and inactive: 0.36

## O=C(Nc1cc(C(F)(F)F)cc(C(F)(F)F)c1)c1cc(Cl)ccc1O
[2]
  scaled lipid accumulation score: active: 1.61

## CNC(=O)c1nn(C)c2c1C(C)(C)Cc1cnc(Nc3ccc(N4CCN(C)CC4)cc3)nc1-2
[1]
  scaled lipid accumulation score: inactive: 0.148
[2]
  scaled lipid accumulation score: inactive: ≤ 0

## CC(C)(O)CC[C@@H](O)[C@](C)(O)[C@H]1CC[C@@]2(O)C3=CC(=O)[C@@H]4C[C@@H](O)[C@@H](O)C[C@]4(C)[C@H]3CC[C@]12C [20-Hydroxyecdysone]
[1]
  scaled lipid accumulation score: inactive: ≤ 0
[2]
  scaled lipid accumulation score: inactive: ≤ 0

## Cc1cc2nc3ccc(N(C)C)cc3[s+]c2cc1N
[2]
  scaled lipid accumulation score: inactive: 0.114

## Nc1ccc(S(=O)(=O)Nc2ccc(Cl)nn2)cc1 [Sulfachloropyridazine]
  scaled lipid accumulation score: inactive: ≤ 0

## Nc1ccc(S(=O)(=O)Nc2ccc(Cl)nn2)cc1 [Sulfachlorpyridazine]
Library stock concentration: 7 mM
  scaled lipid accumulation score: inactive: ≤ 0
[2]
  scaled lipid accumulation score: inactive: ≤ 0

## CC(=O)NC(C(=O)O)C(C)(C)SN=O (configuration not stated) [S-Nitroso-N-acetylpenicillamine]
[2]
  scaled lipid accumulation score: inactive: ≤ -0.055

## CC(=O)NC(C(=O)O)C(C)(C)SN=O (configuration not stated) [Snap (s-nitroso-n-acetylpenicillamine)]
[2]
  scaled lipid accumulation score: inactive: 0.171

## CN(C)CCC1(c2ccc(Cl)cc2)Cc2ccccc2C(=O)O1 (configuration not stated)
[2]
  scaled lipid accumulation score: inactive: 0.575

## C[C@H]1C[C@H]2[C@@H]3CCC4=CC(=O)C=C[C@]4(C)[C@@]3(Cl)[C@@H](O)C[C@]2(C)[C@@]1(O)C(=O)CO [Beclomethasone]
[2]
  scaled lipid accumulation score: inactive: ≤ 0 and inactive: 0.148

## Oc1ccc(O)cc1 [Hydroquinone]
[2]
  scaled lipid accumulation score: inactive: ≤ -0.07 and inactive: 0.155
Library stock concentration: 18.2 mM
  scaled lipid accumulation score: inactive: ≤ 0

## CN1CCN(c2cccc(Nc3nc4c(-c5ccc(S(C)(=O)=O)cc5)cccn4n3)c2)CC1
[1]
  scaled lipid accumulation score: inactive: ≤ 0
[2]
  scaled lipid accumulation score: inactive: 0.707

## CN[C@@H](C)C(=O)N[C@H](C(=O)N1CCC[C@H]1C(=O)Nc1snnc1-c1ccccc1)C1CCCCC1
[1]
  scaled lipid accumulation score: inactive: ≤ 0
[2]
  scaled lipid accumulation score: inactive: 0.5

## CC1CCC(NC(=O)N(CCCl)N=O)CC1 (configuration not stated) [Semustine]
Library stock concentration: 8.1 mM
  scaled lipid accumulation score: inactive: ≤ 0
[2]
  scaled lipid accumulation score: inactive: ≤ -0.027

## Cn1cc(C(=O)OCC2CCN(CCNS(C)(=O)=O)CC2)c2ccccc21
[2]
  scaled lipid accumulation score: inactive: 0.41

## CC(C)(C)c1cc(C(=O)C(C#N)=NNc2cccc(Cl)c2)no1
[1]
  scaled lipid accumulation score: inactive: ≤ -0.009
[2]
  scaled lipid accumulation score: inactive: ≤ 0

## C#C[C@]1(O)CC[C@H]2[C@@H]3[C@H](C)CC4=C(CCC(=O)C4)[C@H]3CC[C@@]21C
[2]
  scaled lipid accumulation score: inactive: ≤ 0

## C#C[C@]1(O)CC[C@H]2[C@@H]3[C@H](C)CC4=C(CCC(=O)C4)[C@H]3CC[C@@]21C [Tibolone]
[3]
  scaled lipid accumulation score: inactive: ≤ 0
Library stock concentration: 6.4 mM
  scaled lipid accumulation score: inactive: ≤ 0

## OC[C@@H](O)[C@@H](O)[C@H](O)[C@@H](O)CO [Sorbitol]
[1]
  scaled lipid accumulation score: inactive: ≤ 0
[2]
  scaled lipid accumulation score: inactive: ≤ 0

## OC[C@@H](O)[C@@H](O)[C@H](O)[C@@H](O)CO
[2]
  scaled lipid accumulation score: inactive: 0.003

## S=C=Nc1ccc(N=C=S)cc1
[2]
  scaled lipid accumulation score: inactive: ≤ 0

## O=C(O)COc1cccc(-c2ocnc2-c2nc(-c3ccccc3)c(-c3ccccc3)o2)c1
[2]
  scaled lipid accumulation score: inactive: ≤ -0.006

## C[C@@H](CN1CCC(n2c(=O)[nH]c3cc(Cl)ccc32)CC1)NC(=O)c1ccc2ccccc2c1
[3]
  scaled lipid accumulation score: inactive: 0.02

## C=CC(=O)Nc1cc2c(Nc3ccc(F)c(Cl)c3)ncnc2cc1C#CC(C)(C)N1CCN(C)CC1
[5]
  scaled lipid accumulation score: active: 0.879

## CNCC[C@H](Oc1ccc(C(F)(F)F)cc1)c1ccccc1 [S-(+)-Fluoxetine hydrochloride]
[2]
  scaled lipid accumulation score: inactive: 0.403

## Cc1nc(-c2ccccc2)c(-c2ccncc2)o1
[1]
  scaled lipid accumulation score: inactive: ≤ 0

## CCCCC(=O)O[C@]1(C(=O)CO)[C@@H](C)C[C@H]2[C@@H]3CCC4=CC(=O)C=C[C@]4(C)[C@@]3(F)[C@@H](O)C[C@@]21C [Betamethasone valerate]
[2]
  scaled lipid accumulation score: inactive: ≤ 0

## CC(=O)OCC(=O)[C@@]1(O)CC[C@H]2[C@@H]3CCC4=CC(=O)C=C[C@]4(C)[C@@]3(F)[C@@H](O)C[C@@]21C [Isoflupredone acetate]
  scaled lipid accumulation score: inactive: ≤ 0

## COc1cc(C(=O)N2CCOCC2)cc(OC)c1OC [Trimetozine]
Library stock concentration: 7.1 mM
  scaled lipid accumulation score: inactive: ≤ 0

## CC(=O)OCC(=O)[C@@]1(O)CC[C@H]2[C@@H]3CCC4=CC(=O)CC[C@]4(C)[C@H]3C(=O)C[C@@]21C
[2]
  scaled lipid accumulation score: inactive: ≤ 0

## CC(=O)OCC(=O)[C@@]1(O)CC[C@H]2[C@@H]3CCC4=CC(=O)CC[C@]4(C)[C@H]3C(=O)C[C@@]21C [Cortisone acetate]
[1]
  scaled lipid accumulation score: inactive: ≤ 0
Library stock concentration: 5 mM
  scaled lipid accumulation score: inactive: ≤ -0.001
[2]
  scaled lipid accumulation score: inactive: 0.025 and inactive: ≤ 0

## CC(=O)OCC(=O)[C@@]1(O)CC[C@H]2[C@@H]3CCC4=CC(=O)CC[C@]4(C)[C@H]3C(=O)C[C@@]21C [Cortisone 21-acetate]
[2]
  scaled lipid accumulation score: inactive: 0.199

## FC(F)(F)c1ccc(/C=C/c2nc(COc3ccc(CCCCn4ccnn4)cc3)co2)cc1 [Mubritinib (TAK 165)]
[1]
  scaled lipid accumulation score: inactive: ≤ 0
[2]
  scaled lipid accumulation score: inactive: ≤ 0

## FC(F)(F)c1ccc(/C=C/c2nc(COc3ccc(CCCCn4ccnn4)cc3)co2)cc1
[2]
  scaled lipid accumulation score: inactive: 0.003

## O=C1c2ccccc2C(=O)c2c(NCCc3ccc(O)cc3)ccc(NCCc3ccc(O)cc3)c21
[2]
  scaled lipid accumulation score: inactive: 0.079

## CC(Oc1cc(-c2cnn(C3CCNCC3)c2)cnc1N)c1c(Cl)ccc(F)c1Cl [(S)-crizotinib]
[1]
  scaled lipid accumulation score: inactive: 0.504
[2]
  scaled lipid accumulation score: inactive: 0.396
